± gives the standard deviation of the averaged measurements. Restriction of a single-cycle SIVsab GFP reporter by TRIM5α v1-loop variants in CRFK cells. Human variants: read share among cells still uninfected after two challenges over input, higher = gained restriction. Rhesus variants: share among infected cells over input, higher = lost restriction. Reporter dose not given per row. No active / inactive call per row; the paper calls a change when both replicates lie above its controls (mean + 2 SD of stop or wild-type variants, or the top frameshift score). Residues outside the varied loop are taken from Swiss-Prot. The paper reads the human single-substitution scores as noise; they and the rhesus combinations repeat poorly (rank correlation 0.3 to 0.4), indel scores repeat only for the top variants, rhesus substitutions well (0.9).

The data set relates to SIVsab (simian immunodeficiency virus of sabaeus monkeys), single-cycle GFP reporter, in CRFK cells. The experiment in a line: enrichment among infected cells over input (fold); higher = weaker restriction. The conditions noted are these: library: human / rhesus combinations. As to the method:
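Pools of CRFK cells expressing variants of the TRIM5α v1 loop were challenged with the single-cycle reporter, sorted by GFP and sequenced; mean of two replicates.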
As to “MASGILLNVKEEVTCPICLELLTEPLSLHCGHSFCQACITANHKKSMLYKEGERSCPVCRISYQPENIQPNRHVANIVEKLREVKLSPEEGQKVDHCARHGEKLLLFCQEDSKVICWLCERSQEHRGHHTFLMEEVAQEYHVKLQTALEMLRQKQQEAEKLEADIREEKASWKIQIDYDKTNVSADFEQLREILDWEESNELQNLEKEEEDILKSLTKSETEMVQQTQYMRELISELEHRLQGSMMDLLQGVDGIIKRIENMTLKKPKTFHKNQRRVFRAPDLKGMLDMFRELTDARRYWVDVTLAPNNISHAVIAEDKRQVSSRNPQIMYGAPGTRFTFQTLVNFNYCTGVLGSQSITSGKHYWEVDVSKKSAWILGVCAGFQSDAMYNIEQNENYQPKYGYWVIGLQEGVKYSVFQDGSSHTPFAPFIVPLSVIICPDRVGVFVDYEACTVSFFNITNHGFLIYKFSQCSFSKPVFPYLNPRKCTVPMTLCSPSS [rhesus TRIM5α, 332-344 = GAPGTRFTFQTLV]”, the enrichment is 1.26 ± 0.47.
The figure for “MASGILLNVKEEVTCPICLELLTEPLSLHCGHSFCQACITANHKKSMLYKEGERSCPVCRISYQPENIQPNRHVANIVEKLREVKLSPEEGQKVDHCARHGEKLLLFCQEDSKVICWLCERSQEHRGHHTFLMEEVAQEYHVKLQTALEMLRQKQQEAEKLEADIREEKASWKIQIDYDKTNVSADFEQLREILDWEESNELQNLEKEEEDILKSLTKSETEMVQQTQYMRELISELEHRLQGSMMDLLQGVDGIIKRIENMTLKKPKTFHKNQRRVFRAPDLKGMLDMFRELTDARRYWVDVTLAPNNISHAVIAEDKRQVSSRNPQIMYGAPGTRYPSFTNFNYCTGVLGSQSITSGKHYWEVDVSKKSAWILGVCAGFQSDAMYNIEQNENYQPKYGYWVIGLQEGVKYSVFQDGSSHTPFAPFIVPLSVIICPDRVGVFVDYEACTVSFFNITNHGFLIYKFSQCSFSKPVFPYLNPRKCTVPMTLCSPSS [rhesus TRIM5α, 332-344 = GAPGTRYPSFT]” is 2.57 ± 3; for “MASGILLNVKEEVTCPICLELLTEPLSLHCGHSFCQACITANHKKSMLYKEGERSCPVCRISYQPENIQPNRHVANIVEKLREVKLSPEEGQKVDHCARHGEKLLLFCQEDSKVICWLCERSQEHRGHHTFLMEEVAQEYHVKLQTALEMLRQKQQEAEKLEADIREEKASWKIQIDYDKTNVSADFEQLREILDWEESNELQNLEKEEEDILKSLTKSETEMVQQTQYMRELISELEHRLQGSMMDLLQGVDGIIKRIENMTLKKPKTFHKNQRRVFRAPDLKGMLDMFRELTDARRYWVDVTLAPNNISHAVIAEDKRQVSSRNPQIMYGAPGTRYPSFVNFNYCTGVLGSQSITSGKHYWEVDVSKKSAWILGVCAGFQSDAMYNIEQNENYQPKYGYWVIGLQEGVKYSVFQDGSSHTPFAPFIVPLSVIICPDRVGVFVDYEACTVSFFNITNHGFLIYKFSQCSFSKPVFPYLNPRKCTVPMTLCSPSS [rhesus TRIM5α, 332-344 = GAPGTRYPSFV]” it is 0.298 ± 0.28.
The same measure for “MASGILLNVKEEVTCPICLELLTEPLSLHCGHSFCQACITANHKKSMLYKEGERSCPVCRISYQPENIQPNRHVANIVEKLREVKLSPEEGQKVDHCARHGEKLLLFCQEDSKVICWLCERSQEHRGHHTFLMEEVAQEYHVKLQTALEMLRQKQQEAEKLEADIREEKASWKIQIDYDKTNVSADFEQLREILDWEESNELQNLEKEEEDILKSLTKSETEMVQQTQYMRELISELEHRLQGSMMDLLQGVDGIIKRIENMTLKKPKTFHKNQRRVFRAPDLKGMLDMFRELTDARRYWVDVTLAPNNISHAVIAEDKRQVSSRNPQIMYGAPGTRYPSLTNFNYCTGVLGSQSITSGKHYWEVDVSKKSAWILGVCAGFQSDAMYNIEQNENYQPKYGYWVIGLQEGVKYSVFQDGSSHTPFAPFIVPLSVIICPDRVGVFVDYEACTVSFFNITNHGFLIYKFSQCSFSKPVFPYLNPRKCTVPMTLCSPSS [rhesus TRIM5α, 332-344 = GAPGTRYPSLT]”: 1.11 ± 1.1.
The figure for “MASGILLNVKEEVTCPICLELLTEPLSLHCGHSFCQACITANHKKSMLYKEGERSCPVCRISYQPENIQPNRHVANIVEKLREVKLSPEEGQKVDHCARHGEKLLLFCQEDSKVICWLCERSQEHRGHHTFLMEEVAQEYHVKLQTALEMLRQKQQEAEKLEADIREEKASWKIQIDYDKTNVSADFEQLREILDWEESNELQNLEKEEEDILKSLTKSETEMVQQTQYMRELISELEHRLQGSMMDLLQGVDGIIKRIENMTLKKPKTFHKNQRRVFRAPDLKGMLDMFRELTDARRYWVDVTLAPNNISHAVIAEDKRQVSSRNPQIMYGAPGTRYPSLVNFNYCTGVLGSQSITSGKHYWEVDVSKKSAWILGVCAGFQSDAMYNIEQNENYQPKYGYWVIGLQEGVKYSVFQDGSSHTPFAPFIVPLSVIICPDRVGVFVDYEACTVSFFNITNHGFLIYKFSQCSFSKPVFPYLNPRKCTVPMTLCSPSS [rhesus TRIM5α, 332-344 = GAPGTRYPSLV]” is 0.749 ± 0.072; for “MASGILLNVKEEVTCPICLELLTEPLSLHCGHSFCQACITANHKKSMLYKEGERSCPVCRISYQPENIQPNRHVANIVEKLREVKLSPEEGQKVDHCARHGEKLLLFCQEDSKVICWLCERSQEHRGHHTFLMEEVAQEYHVKLQTALEMLRQKQQEAEKLEADIREEKASWKIQIDYDKTNVSADFEQLREILDWEESNELQNLEKEEEDILKSLTKSETEMVQQTQYMRELISELEHRLQGSMMDLLQGVDGIIKRIENMTLKKPKTFHKNQRRVFRAPDLKGMLDMFRELTDARRYWVDVTLAPNNISHAVIAEDKRQVSSRNPQIMYGAPGTRYQSFTNFNYCTGVLGSQSITSGKHYWEVDVSKKSAWILGVCAGFQSDAMYNIEQNENYQPKYGYWVIGLQEGVKYSVFQDGSSHTPFAPFIVPLSVIICPDRVGVFVDYEACTVSFFNITNHGFLIYKFSQCSFSKPVFPYLNPRKCTVPMTLCSPSS [rhesus TRIM5α, 332-344 = GAPGTRYQSFT]” it is 1.45 ± 1.5; for “MASGILLNVKEEVTCPICLELLTEPLSLHCGHSFCQACITANHKKSMLYKEGERSCPVCRISYQPENIQPNRHVANIVEKLREVKLSPEEGQKVDHCARHGEKLLLFCQEDSKVICWLCERSQEHRGHHTFLMEEVAQEYHVKLQTALEMLRQKQQEAEKLEADIREEKASWKIQIDYDKTNVSADFEQLREILDWEESNELQNLEKEEEDILKSLTKSETEMVQQTQYMRELISELEHRLQGSMMDLLQGVDGIIKRIENMTLKKPKTFHKNQRRVFRAPDLKGMLDMFRELTDARRYWVDVTLAPNNISHAVIAEDKRQVSSRNPQIMYGAPGTRYQSLTNFNYCTGVLGSQSITSGKHYWEVDVSKKSAWILGVCAGFQSDAMYNIEQNENYQPKYGYWVIGLQEGVKYSVFQDGSSHTPFAPFIVPLSVIICPDRVGVFVDYEACTVSFFNITNHGFLIYKFSQCSFSKPVFPYLNPRKCTVPMTLCSPSS [rhesus TRIM5α, 332-344 = GAPGTRYQSLT]” it is 0.777 ± 0.25.
As to “MASGILLNVKEEVTCPICLELLTEPLSLHCGHSFCQACITANHKKSMLYKEGERSCPVCRISYQPENIQPNRHVANIVEKLREVKLSPEEGQKVDHCARHGEKLLLFCQEDSKVICWLCERSQEHRGHHTFLMEEVAQEYHVKLQTALEMLRQKQQEAEKLEADIREEKASWKIQIDYDKTNVSADFEQLREILDWEESNELQNLEKEEEDILKSLTKSETEMVQQTQYMRELISELEHRLQGSMMDLLQGVDGIIKRIENMTLKKPKTFHKNQRRVFRAPDLKGMLDMFRELTDARRYWVDVTLAPNNISHAVIAEDKRQVSSRNPQIMYGAPGTRYQSLVNFNYCTGVLGSQSITSGKHYWEVDVSKKSAWILGVCAGFQSDAMYNIEQNENYQPKYGYWVIGLQEGVKYSVFQDGSSHTPFAPFIVPLSVIICPDRVGVFVDYEACTVSFFNITNHGFLIYKFSQCSFSKPVFPYLNPRKCTVPMTLCSPSS [rhesus TRIM5α, 332-344 = GAPGTRYQSLV]”, the enrichment amounted to 2.52 ± 3.
The figure for “MASGILLNVKEEVTCPICLELLTEPLSLHCGHSFCQACITANHKKSMLYKEGERSCPVCRISYQPENIQPNRHVANIVEKLREVKLSPEEGQKVDHCARHGEKLLLFCQEDSKVICWLCERSQEHRGHHTFLMEEVAQEYHVKLQTALEMLRQKQQEAEKLEADIREEKASWKIQIDYDKTNVSADFEQLREILDWEESNELQNLEKEEEDILKSLTKSETEMVQQTQYMRELISELEHRLQGSMMDLLQGVDGIIKRIENMTLKKPKTFHKNQRRVFRAPDLKGMLDMFRELTDARRYWVDVTLAPNNISHAVIAEDKRQVSSRNPQIMYGAPGTRYTFPSFTNFNYCTGVLGSQSITSGKHYWEVDVSKKSAWILGVCAGFQSDAMYNIEQNENYQPKYGYWVIGLQEGVKYSVFQDGSSHTPFAPFIVPLSVIICPDRVGVFVDYEACTVSFFNITNHGFLIYKFSQCSFSKPVFPYLNPRKCTVPMTLCSPSS [rhesus TRIM5α, 332-344 = GAPGTRYTFPSFT]” is 1.56 ± 0.55; for “MASGILLNVKEEVTCPICLELLTEPLSLHCGHSFCQACITANHKKSMLYKEGERSCPVCRISYQPENIQPNRHVANIVEKLREVKLSPEEGQKVDHCARHGEKLLLFCQEDSKVICWLCERSQEHRGHHTFLMEEVAQEYHVKLQTALEMLRQKQQEAEKLEADIREEKASWKIQIDYDKTNVSADFEQLREILDWEESNELQNLEKEEEDILKSLTKSETEMVQQTQYMRELISELEHRLQGSMMDLLQGVDGIIKRIENMTLKKPKTFHKNQRRVFRAPDLKGMLDMFRELTDARRYWVDVTLAPNNISHAVIAEDKRQVSSRNPQIMYGAPGTRYTFPSFVNFNYCTGVLGSQSITSGKHYWEVDVSKKSAWILGVCAGFQSDAMYNIEQNENYQPKYGYWVIGLQEGVKYSVFQDGSSHTPFAPFIVPLSVIICPDRVGVFVDYEACTVSFFNITNHGFLIYKFSQCSFSKPVFPYLNPRKCTVPMTLCSPSS [rhesus TRIM5α, 332-344 = GAPGTRYTFPSFV]” it is 2.26 ± 0.99; for “MASGILLNVKEEVTCPICLELLTEPLSLHCGHSFCQACITANHKKSMLYKEGERSCPVCRISYQPENIQPNRHVANIVEKLREVKLSPEEGQKVDHCARHGEKLLLFCQEDSKVICWLCERSQEHRGHHTFLMEEVAQEYHVKLQTALEMLRQKQQEAEKLEADIREEKASWKIQIDYDKTNVSADFEQLREILDWEESNELQNLEKEEEDILKSLTKSETEMVQQTQYMRELISELEHRLQGSMMDLLQGVDGIIKRIENMTLKKPKTFHKNQRRVFRAPDLKGMLDMFRELTDARRYWVDVTLAPNNISHAVIAEDKRQVSSRNPQIMYGAPGTRYTFPSLTNFNYCTGVLGSQSITSGKHYWEVDVSKKSAWILGVCAGFQSDAMYNIEQNENYQPKYGYWVIGLQEGVKYSVFQDGSSHTPFAPFIVPLSVIICPDRVGVFVDYEACTVSFFNITNHGFLIYKFSQCSFSKPVFPYLNPRKCTVPMTLCSPSS [rhesus TRIM5α, 332-344 = GAPGTRYTFPSLT]” it is 1.38 ± 0.081.
The same measure for “MASGILLNVKEEVTCPICLELLTEPLSLHCGHSFCQACITANHKKSMLYKEGERSCPVCRISYQPENIQPNRHVANIVEKLREVKLSPEEGQKVDHCARHGEKLLLFCQEDSKVICWLCERSQEHRGHHTFLMEEVAQEYHVKLQTALEMLRQKQQEAEKLEADIREEKASWKIQIDYDKTNVSADFEQLREILDWEESNELQNLEKEEEDILKSLTKSETEMVQQTQYMRELISELEHRLQGSMMDLLQGVDGIIKRIENMTLKKPKTFHKNQRRVFRAPDLKGMLDMFRELTDARRYWVDVTLAPNNISHAVIAEDKRQVSSRNPQIMYGAPGTRYTFPSLVNFNYCTGVLGSQSITSGKHYWEVDVSKKSAWILGVCAGFQSDAMYNIEQNENYQPKYGYWVIGLQEGVKYSVFQDGSSHTPFAPFIVPLSVIICPDRVGVFVDYEACTVSFFNITNHGFLIYKFSQCSFSKPVFPYLNPRKCTVPMTLCSPSS [rhesus TRIM5α, 332-344 = GAPGTRYTFPSLV]”: 1.28 ± 0.2.
